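Grown in 96-well plates, cells were treated for 48 hours with each compound at five concentrations. Insufficient inhibition: endpoint recorded as highest concentration tested. Abbreviation: GI50, concentration required for 50% inhibition of growth. TGI marks complete inhibition of growth.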 Some results are limits rather than exact numbers.

The subject of the experiment is NCI-H322M lung. The experiment is described as follows: NCI tumour cell line growth inhibition, 48 h.
As to `COC(=O)[C@]12CC[C@@H](C)[C@H](C)[C@@H]1C1=CC[C@@H]3[C@@]4(C)C[C@@H](OC(=O)/C=C/c5ccccc5)[C@H](O)[C@@](C)(CO)[C@@H]4[C@H](O)C[C@@]3(C)[C@]1(C)CC2`, the GI50 is 3.07 µM and the TGI was determined as 12.7 µM.
Turning to `COC(=O)c1ccc(/C=C(\c2ccc([N+](=O)[O-])o2)S(=O)(=O)c2ccc(NC(C)=O)cc2)o1`, the TGI was determined as 33.4 µM.
Same read-out and setting: in the case of `O=C(O)c1ccccc1CC1Cc2cc3c(cc2C1)CCC3` it was > 100 µM.
On the same count and under the same terms, in the case of `OCC[N+]12CCCN1CCC2` it was > 100 µM.
On to `Cc1cnc2oc3ccc(O)cc3c2c1-c1ccccc1`, for which the GI50 is 12.9 µM and the TGI was determined as 72.8 µM.
Turning to `O=C1C(=C([O-])c2ccccc2)C(=O)c2ccccc21.O=C1C(=C([O-])c2ccccc2)C(=O)c2ccccc21.[Mn+2]`, the GI50 is 48.1 µM and the TGI was > 100 µM.
In the case of `N#CC(C#N)=C/C=C/c1c(Cl)cccc1Cl`, the TGI worked out at 6.45 µM.
On the same count and under the same terms, for `C[Si](C)(C)c1ccc(-c2c3ccc(-c4cc(Br)cc(Br)c4)nc3nc3nc(-c4cc(Br)cc(Br)c4)ccc23)cc1` the value was > 100 µM; for `CC(C)CCNC(=O)C(CC(C)C)NC(=O)[C@H]1O[C@@H]1C(=O)O` (stereo partly drawn), > 100 µM; for `CN(C)CCC(CCN(C)C)=NO`, > 100 µM.
In the case of `NC(=S)N/N=C1\c2ccccc2-c2c(F)c(F)c(F)c(F)c21`, the GI50 was 21.1 µM and the TGI worked out at 43.9 µM.
With `COc1ccccc1CC(C)N` (stereo not drawn), the TGI was > 100 µM.
Take `Cn1cc(-c2nc(-c3c[nH]c4ncccc34)cs2)c2ccccc21`: the GI50 was 1.29 µM and the TGI was > 100 µM.
`O=C(NCCC1CN(C(=O)OCc2ccccc2)c2ccccc21)OCc1ccccc1` (stereo not drawn): the TGI is > 100 µM.
For `O=C(C=P(c1ccccc1)(c1ccccc1)c1ccccc1)CCl`, the GI50 was 2.31 µM and the TGI came out at 7.29 µM.
Take `O=C(Cc1nc2ccccc2o1)C(=O)Nc1cccc(Cl)c1`: the TGI was > 100 µM.
On the same count and under the same terms, in the case of `CCOC(=O)C1(C#N)C(=O)c2cc[n+](CC[n+]3ccc4c(c3)C(=O)C(C#N)(C(=O)OCC)C4=O)cc2C1=O` (stereo not drawn) it was > 100 µM.
Same read-out and setting: in the case of `C/C(N)=C/C(=O)c1[nH]c(C(=O)O)cc1C1CCN(Cc2ccccc2)C1=O` (stereo not drawn) it was 78.7 µM; in that of `CC(O)CN1c2ccccc2Sc2ccccc21` (stereo not drawn), > 100 µM.
Turning to `NC1CCCCC1N.O=C1C=C/C(=C(/c2ccc(O)c(Br)c2)c2ccccc2S(=O)(=O)[O-])C=C1Br.O=C1C=C/C(=C(/c2ccc(O)c(Br)c2)c2ccccc2S(=O)(=O)[O-])C=C1Br.[Pt+4]`, the GI50 is 4.56 µM and the TGI was determined as 91.8 µM.
Turning to `O=C(N/C(=C\c1cccc([N+](=O)[O-])c1)c1nc2ccccc2[nH]1)c1ccccc1`, the TGI is > 100 µM.
The same measure, in the same setting: for `Oc1ccc2c3c1OC1c4[nH]ncc4C[C@H]4[C@@H](C2)N(CC2CC2)CC[C@]314` (stereo partly drawn) the value was > 100 µM; for `COC(=O)c1ccccc1CC1Cc2cc3c(cc2C1=O)CCC3` (stereo not drawn), > 100 µM.
For the molecule `Oc1c(Cl)cc(Cl)cc1/C=N/Nc1nnc(N/N=C/c2cc(Cl)cc(Cl)c2O)c2ccccc12`, the GI50 was 0.455 µM and the TGI was > 100 µM.
Regarding `COc1ccc(C2ON(c3ccccc3)CC=C2C)cc1` (stereo not drawn), the TGI is > 100 µM.

The values are drawn from PubChem BioAssay (NCI).
